# According to PubChem BioAssay AID1454 (National Center for Advancing Translational Sciences (NCATS), 2008):
# Where “and” joins values, the source holds several entries; their conditions need not be identical. Identical values can stand only once. Out of some 130,000 compounds screened, about 550 (0.42%) were called active. The inconclusive results got no clear call from the source; some entries with a clear call stand among them for comparison. The call rests on the fitted dose curve; in most records, active means well fitted inhibition curve with a large enough effect; inconclusive means small, poorly fitted or top-dose-only effect, or effect the other way; inactive means flat fitted curve, though single readings scatter. A potency beside an inconclusive call is a rough fit, not a confirmed value.
# Test: qHTS Assay for Inhibitors of the ERK Signaling Pathway using a Homogeneous Screening Assay; Stimulation with EGF; further: nearly all actives have a fitted effect of over 55% in size;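 on activity change, negative = inhibition: plate controls were stimulated vehicle wells for no effect and unstimulated vehicle basal for full effect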
# Settings: HEK293-V1b, EGF-stimulated phospho-ERK AlphaScreen; activity change, negative = inhibition: at the top concentration
# Summary of the method: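 Readout: AlphaScreen signal for phosphorylated ERK in lysed HEK293 cells stably expressing V1b. Stimulus 25 nM EGF, 5 min, following 30 min compound exposure. Data scaled to DMSO basal and full EGF activation.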
# Potency means the concentration at half of the fitted maximal effect; tags describe the fitted curve by direction and shape.
SMILES,Potency,"activity change, negative = inhibition"
COc1ccc(N=Nc2ccc(N)nc2N)cc1,"inconclusive: 12.6 µM [inhibitor, partial curve]",–
Cc1sc(NC(=O)COc2ccccc2)c(C#N)c1C,"inconclusive: 25.1 µM [inhibitor, single point]",–
Clc1ccc(-n2ncc3c(NCc4ccccn4)ncnc32)cc1,"inconclusive: 3.55 µM [activator, single point]",–
O=C(c1ccccc1)C1CN(Cc2ccccc2)CCC1(O)c1ccccc1 (stereo unspecified),"inconclusive: 31.6 µM [inhibitor, single point]",–
COc1cc(/C=N/Nc2nc(C)nc3c2cnn3-c2ccccc2)ccc1O,"inconclusive: 15.8 µM [inhibitor, partial curve]",–
CCN1CCN(Cc2ccc(NC(=O)c3ccc(C)c(NC(=O)c4csc(-c5ccncc5)n4)c3)cc2C(F)(F)F)CC1,"inconclusive: 25.1 µM [inhibitor, single point]",–
CC(=O)Nc1ccc(-c2csc(Nc3ccccn3)n2)cc1,"inconclusive: 10 µM [inhibitor, partial curve]",–
Cc1ccccc1OCc1n(CC(=O)OC2CC(C)CCC2C(C)C)c2ccccc2[n+]1C (stereo unspecified),"inconclusive: 31.6 µM [inhibitor, single point] and inconclusive: 39.8 µM [inhibitor, single point]",–
CCc1ccc(/C(C)=N/NC(=O)c2ccccn2)cc1,"inconclusive: 39.8 µM [inhibitor, single point]",–
CCn1nc(NC(=O)c2ccccc2)c2cc3cccc(C)c3nc21,"inconclusive: 3.98 µM [activator, partial curve]",–
COc1ccc(C(=O)O/N=C(\C)c2nccs2)cc1,–,inactive: -47.2%
CCCn1c(=N)n(CC(O)COc2ccc(C)cc2)c2ccccc21 (stereo unspecified),"inconclusive: 31.6 µM [inhibitor, single point]",–
Cc1cc(C(=O)CSc2nc3ccccc3c(=O)[nH]2)c(C)n1CC1CCCO1 (stereo unspecified),"inconclusive: 28.2 µM [inhibitor, single point]",–
O=C(N/N=C/c1cccc(Br)c1)c1ccc(Cn2cc(Br)cn2)o1,"inconclusive: 28.2 µM [inhibitor, single point]",–
CC(C)C1/C(=N/O)CC(c2ccccc2)NC1c1ccccc1 (stereo unspecified),–,inactive: -11.5% [at 57.5 µM]
Cc1cc(N)c2ccccc2n1,–,inactive: 2.44%
COc1cc(CN2CCCC(C(=O)c3ccccc3SC)C2)cc(OC)c1 (stereo unspecified),"inconclusive: 14.1 µM [inhibitor, partial curve]",–
CCCCCCCCCCCCCCCC(=O)OC(CC(=O)O)C[N+](C)(C)C (stereo unspecified),"inconclusive: 28.2 µM [inhibitor, single point]",–
O=C1CC(c2ccc(O[C@@H]3OC(CO)[C@@H](O)C(O)C3O)cc2)Oc2cc(O)ccc21 (stereo partly specified),–,inactive: -8.22%
COc1ccc2c(c1)CCC/C2=N/OC(=O)c1ccccc1OC,"inconclusive: 31.6 µM [inhibitor, single point]",–
CCCCNc1ccc2c3c(cccc13)C(=O)N(CCCC)C2=O,"inconclusive: 11.2 µM [activator, partial curve]",–
Cc1ccc(Oc2ncccc2NC(=O)CC(CC(=O)O)c2ccccc2)c2c1CCC2 (stereo unspecified),"inconclusive: 8.91 µM [inhibitor, partial curve, poor fit]",–

SMILES,Potency,"activity change, negative = inhibition"
N#C/C(=C\c1ccc(O)c(O)c1)C(=O)c1ccc(O)c(O)c1,"inconclusive: 12.6 µM [inhibitor, partial curve]",–
O=c1c(-c2cccs2)nc2cnc(Oc3cccc(Cl)c3)nc2n1C[C@H]1CCCO1,"inconclusive: 14.1 µM [activator, partial curve]",–
Cc1noc(C)c1C(=O)N1CCC2(CC1)CCN(c1ccncc1)CC2,–,inactive: 5.59%
COc1ccc(-n2cc(CNCCCn3ccnc3)c(-c3cccc(F)c3)n2)cc1,"inconclusive: 35.5 µM [inhibitor, single point]",–
Cn1cc(CNCc2cn[nH]c2-c2ccc(F)cc2)c(-c2ccc3c(c2)OCCO3)n1,"inconclusive: 39.8 µM [inhibitor, single point]",–
CCCCCC(CC(=O)O)C(=O)O (stereo unspecified),–,inactive: 23.4%
Cn1c(-c2ccccc2)cnc1NCc1cc2c(cc1[N+](=O)[O-])OCO2,"inconclusive: 39.8 µM [inhibitor, single point]",–
CC(=O)N1CCC2(CCCN(Cc3cc(C(F)(F)F)cc(C(F)(F)F)c3)C2)CC1,–,inactive: -6.83%
CC(=O)N1CCC2(CC1)CN(c1ccccn1)C2,–,inactive: -0.129%
CCOc1ncccc1C(=O)N(C)CC(=O)Nc1ccc(C)cc1,–,inactive: -1.08%
Cc1ccc(Nc2nc(N)c([N+](=O)[O-])c(N3CCOCC3)n2)cc1C,"inconclusive: 22.4 µM [inhibitor, single point]",–
COc1ccc(-c2nc3ncnn3cc2C)cc1F,"inconclusive: 39.8 µM [inhibitor, single point]",–
CCn1c2ccccc2c2cc(NC(=O)CN(C)CC(=O)Nc3ccc(N4CCOCC4)cc3)ccc21,"inconclusive: 0.112 µM [inhibitor, full curve, poor fit]",–
COC(=O)c1ccc(-n2c(C)cc(C(=O)CSc3ccc(NC(C)=O)cc3)c2C)cc1,"inconclusive: 28.2 µM [inhibitor, single point]",–
CCOc1ccc(-c2cn(-c3ccc(OC)cc3)c(SC)n2)cc1,"inconclusive: 15.8 µM [inhibitor, partial curve]",–
CCn1cc(C(=O)OCC(=O)c2cc(C)n(-c3ccccc3F)c2C)c(=O)c2ccc(C)nc21,"inconclusive: 39.8 µM [inhibitor, single point]",–
COC(=O)c1ccc(C(NC(=O)OCc2ccccc2)/C(C)=C/[C@@H](C)C(=O)Nc2ccc(OC)cc2)cc1 (stereo partly specified),–,inactive: 1.85%
Cc1ccc[n+](CC(=O)N2CCCc3ccccc32)c1,"inconclusive: 0.282 µM [activator, full curve, poor fit]",–
CC1(C)C(=O)NC2=C1C(=O)C(=O)c1ccccc12,–,inactive: -5.36%
Cc1ccc(S(=O)(=O)N2CCN(C(=O)CSc3nncs3)CC2)cc1,"inconclusive: 0.1 µM [activator, full curve, poor fit]",–
C#CCN1C(=O)S/C(=C/C=C/c2ccc(N(C)C)cc2)C1=O,"inconclusive: 14.1 µM [inhibitor, partial curve]",–
COc1cccc([C@@H]2Oc3ccc(Br)cc3C[C@H]2OC(=O)Nc2ccc(OC(F)F)cc2)c1,–,inactive: -2.69%

SMILES,Potency,"activity change, negative = inhibition"
Cn1c(SCc2c(F)cccc2Cl)nc2c(c1=O)SCC2,"inconclusive: 17.8 µM [inhibitor, partial curve]",–
O=[N+]([O-])c1ccccc1Nc1c2ccccc2nc2ccccc12,"inconclusive: 17.8 µM [inhibitor, single point]",–
CCN(CC(=O)Nc1sc2c(c1C#N)CCCC2)Cc1nc2ccccc2c(=O)[nH]1,"inconclusive: 35.5 µM [inhibitor, single point]",–
COc1cc(/C=C/C(=O)OCC(=O)Nc2sc3c(c2C#N)CCC(C)C3)ccc1OCC#N (stereo unspecified),–,inactive: 1.28%
CCOC(=O)Cc1ncccc1C(=O)Nc1ccc(Oc2ccccc2)cc1,"inconclusive: 7.08 µM [inhibitor, partial curve]",–
COc1ccccc1NC1=C(N2CCCCC2)C(=O)c2ccccc2C1=O,active: 25.1 µM,–
O=S(=O)(Nc1nc2ccccc2nc1N1CCc2ccccc2C1)c1ccc(Cl)cc1,–,inactive: 5.84%
COC(=O)c1ccc(OCC2c3cc(OC)c(OC)cc3CCN2C(C)=O)cc1 (stereo unspecified),"inconclusive: 35.5 µM [inhibitor, single point]",–
Cc1ccc(CN2CCCC(CO)(Cc3ccccc3C)C2)s1 (stereo unspecified),"inconclusive: 39.8 µM [inhibitor, single point]",–
CC(C)(C)OC(=O)[C@H](Cc1ccccc1)NC(=O)c1[nH]cnc1C(=O)Nc1cccc(Cl)c1,"inconclusive: 0.631 µM [inhibitor, single point]",–
O=[N+]([O-])c1ccccc1/C=C/C=N/N1CCCCC1,"inconclusive: 28.2 µM [inhibitor, partial curve]",–
Cc1ccc(/C=N/NC(=O)CNC(=O)c2ccc(C)c([N+](=O)[O-])c2)o1,"inconclusive: 22.4 µM [inhibitor, partial curve]",–
C=CCn1c(C)cc(C(=O)COC(=O)c2ccc3c(c2)NC(=O)CS3)c1C,"inconclusive: 31.6 µM [inhibitor, single point]",–
COc1ccc(C=O)cc1OS(=O)(=O)c1ccc(NC(C)=O)cc1,"inconclusive: 0.282 µM [activator, full curve, poor fit]",–
CN(CC1CCCO1)S(=O)(=O)c1ccc(C(=O)Nc2nc(-c3ccccn3)cs2)cc1 (stereo unspecified),"inconclusive: 39.8 µM [inhibitor, single point]",–
N#C/C(=C\c1ccc(O)cc1)c1nc2ccccc2o1,"inconclusive: 35.5 µM [inhibitor, single point]",–
COCCn1c(=O)c(-c2cccs2)nc2cnc(OCc3ccccc3)nc21,–,inactive: 11.8%
COC(=O)/C=C\C(=O)Nc1cccc([N+](=O)[O-])c1,"inconclusive: 25.1 µM [inhibitor, single point]",–
COc1cc2c(cc1OC)C(c1ccc(-c3cc(Cl)ccc3Cl)o1)=NCC2,"inconclusive: 31.6 µM [inhibitor, single point]",–
COCCNC(=O)/C(C#N)=C/c1cccc(OCc2ccccc2)c1,"inconclusive: 39.8 µM [inhibitor, single point]",–
Nc1nc(NCCCN2CCOCC2)nc(Nc2ccccc2F)c1[N+](=O)[O-],–,inactive: 4.45% [at 57.5 µM]
Cc1ccc(NC(=S)N(CCCN2CCCC(C)C2)Cc2ccco2)cc1C (stereo unspecified),"inconclusive: 28.2 µM [inhibitor, single point]",–
